# Data published in the supplement of paper PMC11417369.
# ± gives the standard deviation of the averaged measurements. This is one part of the list.
# System: PfAP2-EXP AP2 domain (GST-tagged)
# Assay: gcPBM binding intensity (ln(normalized median fluorescence intensity)); higher = stronger DNA binding
# Outline: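 Binding intensity is the highest Masliner-normalised natural-log median intensity over replicate spots in either probe orientation. To obtain it, GST-tagged P. falciparum DNA-binding domains made in E. coli were incubated for 1 h on an Agilent 4 × 180k array of primer-extended double-stranded 36-bp intergenic genomic probes plus negative controls. Detection used Alexa488 anti-GST antibody with scanning at 488 nm.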
row,Sequence,gcPBM binding intensity (ln)
1,AAATCTTAATAAAGTTGTACATAATTATGTTTAATA [XGTACX_site3348],8.43 ± 0.33
2,AAGTATTTCCTAAAATGTACATATAAATAAGTATAT [XGTACX_site1282],8.44 ± 0.49
3,CATATATTTTGAAACACACACATATAAAATATACAT [CACACA_site6664],8.84 ± 0.37
4,TTATTATTTATTTTTTATTATTATTATTTTTTTTTA [XGTACX_negctrl_site76],8.36 ± 0.42
5,GAAAAGATTTAAAAATGTACAAAAGAAAAAAAAAAA [XGTACX_site6916],8.63 ± 0.51
6,TTAAAATTAAAATACGTACACACCTTATCTTTTTGG [CACACA_site7982],8.48 ± 0.3
7,AATATGCCTCCCCAAAAAAAATATATATATATTTAT [GTGCAC_negctrl_site716],9.78 ± 0.98
8,TGGTTATAATTGTACGCATGTAATTACATATTCTCT [TGCATGCA_site599],8.99 ± 0.25
9,TATATTTAAATATATACACACATTATCATTTTCATA [CACACA_site1708],8.28 ± 0.57
10,TATCATTTGGTCTTTTACTTTTTCTGTTTTTTTTTT [CACACA_negctrl_site976],8.87 ± 0.35
11,TTTTTTACTATATCAATTACAAAACAAAAAAAAAAA [GTGCAC_negctrl_site683],8.35 ± 0.42
12,TGATAAAATATTAAATTATTTCTTTATTTAAAGATT [CACACA_negctrl_site370],7.67 ± 0.37
13,AAATATGTTTCAAAAAGTACATTTCTATCTTTTTTT [XGTACX_site7178],8.51 ± 0.42
14,TACTATAAAATGGAATGTACACATAAATATATCTAA [XGTACX_site6137],8.51 ± 0.3
15,ATATGATGTAAAAGCACACATATATATATATATATA [CACACA_site4018],10.1 ± 0.44
16,GTTTATAACTATGTGTGTACACATTAATCGTTTTTC [XGTACX_site4364],8.93 ± 0.23
17,TTGTATAAATATGTATGTATATAATATATGTAAAGA [TGCATGCA_negctrl_site93],8.61 ± 0.49
18,CACATACACATACACATACACACGCATAGAAACATA [CACACA_site2136],8.94 ± 0.22
19,AAATCGTGTACATTGACACACATAATTTTTTTTATA [CACACA_site2463],8.43 ± 0.3
20,AATATATTTATATAGTGTACATTTTTTATATATGTA [XGTACX_site8142],8.47 ± 0.34
21,TATTAATTTTTATTATGTACATAAATAATTTATATT [XGTACX_site5456],8.39 ± 0.28
22,AATATATATATACATACATGCATACATATATATATA [TGCATGCA_site784],9.8 ± 0.14

row,Sequence,gcPBM binding intensity (ln)
1,ATAATATATTATTATAGTACTTTATTTTATTTTATG [XGTACX_site2387],8.67 ± 0.38
2,GGATAGATCATTTACACACACAAAAAAAAAAAAAAA [CACACA_site2139],8.19 ± 0.52
3,TAAGGAAAAAGAAAAAGTACATTATATAATAAATAG [XGTACX_site3282],8.71 ± 0.46
4,AAAAAAAATAAAATGAATAAATAAGAATTACATATT [CACACA_negctrl_site863],8.25 ± 0.41
5,CAAATATATGTTTTCACACACAAAAGAAATGAAACC [CACACA_site2162],8.67 ± 0.34
6,AAAAAGAAGATATATACACACCAAAAAAAAAAAAAA [CACACA_site7471],8.26 ± 0.45
7,TAAAATAAAACAAACACACACACACCCCCACAAAAA [CACACA_site3850],9.97 ± 0.26
8,TATTTACATGTAAAAGGTACACACATTATATATACA [XGTACX_site2157],8.75 ± 0.38
9,TTTATTATTTTTTGTAGTACTTTATATAAAAGTTCT [XGTACX_site4494],8.79 ± 0.28
10,ATACACTTTTATATATCAATACATTATGTATTAAGT [CACACA_negctrl_site421],8.81 ± 0.42
11,CCTCTTTATTTTAATTGTACATTTTTGTAGGTTTTT [XGTACX_site7130],8.82 ± 0.45
12,TCCTTTTTTTTGTAATGTACTTAGTTTGGTTATATG [XGTACX_site8208],8.85 ± 0.49
13,AAAACAAACCCATTTACACACATAAATAAATCAATT [CACACA_site6126],8.46 ± 0.62
14,ATGTATATATATATATGTACTAATTAGTAATTTACG [XGTACX_site6276],8.78 ± 0.36
15,TGAATGTAAGAAAATACACACTAGTATAGTAACACC [CACACA_site5131],8.96 ± 0.42
16,TTTTTATTACTTCTCTGTACTCAGGAAAATAAATAT [XGTACX_site2092],8.46 ± 0.38
17,TTGATTATAATTAGTACACACAAAATACATGCGGGG [CACACA_site2277],9.49 ± 0.35
18,AAATATATAATACATATGTAATATGCATATATATAT [GTGCAC_negctrl_site450],9.72 ± 0.16
19,AAGTATAACCTTTATAATAATGACATGACCGATTTT [CACACA_negctrl_site395],8.26 ± 0.34
20,AAGCATATTATAAACACACACTGTATAAAGATATAT [CACACA_site6277],8.6 ± 0.42
21,ATAATACGAATTTGTAGTACATTTATAATAACATGA [XGTACX_site2614],8.37 ± 0.17
22,TATAACCGAATGTGTACACAAAATAATGTTATATAT [CACACA_site5627],8.96 ± 0.25

row,Sequence,gcPBM binding intensity (ln)
1,ATATAACGAATAATTACACACTATAAAAAAAGATCT [CACACA_site2862],8.6 ± 0.45
2,TAAAAAACTTCGTGTTCACACATGTACTATATTATT [CACACA_site4796],8.44 ± 0.36
3,ACCCATAAGATAATTACACACAATACATCCCTATAT [CACACA_site5262],8.71 ± 0.65
4,TTTTTTTTTTTTTGTTGTACATTAAATATATTATTA [XGTACX_site7254],8.54 ± 0.52
5,TTATTATATTCTCCTTCACACACAAAAATATTTCAT [CACACA_site8738],8.77 ± 0.45
6,TGAAAAATTACAAAAATAATAAAATGAAATAATAAA [GTGCAC_negctrl_site53],8.46 ± 0.28
7,TAAAAGTTATAAGAGTGTACGTATATTTATATATCA [XGTACX_site2972],8.53 ± 0.24
8,TGGAAAAATAGGCACACACACATATATACATATATA [CACACA_site1297],8.61 ± 0.58
9,TTTTAATAACCAATCCGTACATATAATCTTTATATT [XGTACX_site536],8.48 ± 0.25
10,AGGACTAATATTTGAACACACATATAACATATACAT [CACACA_site7803],8.54 ± 0.46
11,AACTATAAATATAAATGTACACATATGTAATATATA [XGTACX_site6085],8.48 ± 0.31
12,CTTTTAAATTATTTTTGTACATAATTATATATATAT [XGTACX_site4128],9.4 ± 0.32
13,AAAAGGAAAATTTTCTTAGTAACTGCATTAAGAGAT [GTGCAC_negctrl_site675],8.89 ± 0.3
14,TACTGTTTAAAATATAAACACACATTGTTTGCTTTA [CACACA_site8358],8.51 ± 0.37
15,TTTTTTGTTATATTTGTGCGCAAAAATTGCTGCTTG,8.88 ± 0.52
16,CATAATATATTTTATGCATGCAAAGCAACCTTTTGA [TGCATGCA_site715],9.59 ± 0.38
17,TATTAACAAAATTTTTAACACACAAAAAAAAAAAAA [CACACA_site8542],8.28 ± 0.54
18,ATTATATATATATATAAACACACATAAATATAAATA [CACACA_site8291],8.56 ± 0.38
19,TATTTATTTAAAGGCACACATATTTTTATACTTTCT [CACACA_site3163],8.48 ± 0.32
20,AAAATTTATGTAAAATGTACATACATAAATAAAGAT [XGTACX_site4339],9.06 ± 0.45
21,TTTGTAAAATAATATCTTTCATGTCCTTACTAATTA [GTGCAC_negctrl_site145],8.26 ± 0.52
22,TAAGGAAAAAATTATAGTACATAATAAATGTATATA [XGTACX_site8328],8.29 ± 0.31

row,Sequence,gcPBM binding intensity (ln)
1,ATAAATATATTTCACGCACACACACCCCAAATAAAT [CACACA_site9272],9.22 ± 0.64
2,AAAAAAGAAAAGAAATCATGAAAGAATCAAATAAAG [CACACA_negctrl_site1771],8.62 ± 0.53
3,CAAATTTTTTATTAAACACACAAACATATATTTATA [CACACA_site6992],8.18 ± 0.41
4,TTTTTATATATATTCTCACACACTTTTTATTTTAAC [CACACA_site657],8.7 ± 0.46
5,TGTTTTTTATTTAATTGTACGAATTAAAAAAAATAA [XGTACX_site3009],8.42 ± 0.41
6,AATATTCATATGCAGGTGCATTAATTTTTATTAATT,8.78 ± 0.23
7,TTCCAACCATAGTATTCACACATTGTTTTATTCCAT [CACACA_site4927],8.83 ± 0.41
8,TTTTTACTAATAAGATGTACATATATCCTAAGCATA [XGTACX_site251],8.44 ± 0.35
9,TTTCGTAAACAAATTTGTACGTACAAATTTATAAAT [XGTACX_site8175],8.96 ± 0.28
10,ATAATATAATAAACGTGTACACAATTAAATTATTAT [XGTACX_site3491],8.68 ± 0.26
11,TACATACATACATACACACATACATATATATATATA [CACACA_site1387],10 ± 0.24
12,TCTTTTATTAGTAAAAGTACTTATATAAATATTATA [XGTACX_site5099],8.28 ± 0.28
13,TAGCTCGTTCGGAGCACACACATATAAATAAATATA [CACACA_site7002],8.38 ± 0.52
14,TATCAAATCCAAAGGGGTACATTTTGTTGTCCTAAT [XGTACX_site5575],8.36 ± 0.39
15,GAAAAAAAAAAAAATACACACAAATTGGTATATAAT [CACACA_site4369],8.41 ± 0.39
16,AATACTCTATTTTATAGTACATATATTATTAATCAC [XGTACX_site6622],8.36 ± 0.3
17,ATAGACAGCGCACAAACACACAAACACGCACGCACA [CACACA_site6349],8.66 ± 0.5
18,TAGGGATTATACCACACACACATACCCATAAATATA [CACACA_site5719],8.78 ± 0.52
19,ATATATATATATTATACACACGCCGAAAAAATAAAA [CACACA_site1551],9.51 ± 0.13
20,TTACGAAAAAACAAGAGTACATGATGTTATAAAATA [XGTACX_site1412],8.76 ± 0.32
21,TTTATTTTATCTAAAAGTACTTAAATTAGTGTATTT [XGTACX_site5696],8.38 ± 0.3
22,CGTTGTAGGGAATGTAGTACAGTTATTATTTTATTA [XGTACX_site2429],8.44 ± 0.26
